Inconclusive means that the source gave no clear call. Such entries were picked first, then a sample of the others. For some assays here: Potencies beside an inconclusive call are fits to weak or partial responses and may not hold up. For some assays here: “Side channel” marks fits to a control or component signal instead of the main read-out. The source made the active and inactive calls. Unless noted, calls follow the shape of the dose curve; as a rule, active = well fitted curve in the direction sought with a large enough effect; inconclusive = small, poorly fitted or top-dose-only effect, or another doubt; inactive = no such curve, though single readings can be large; an effect the other way counts as inactive or inconclusive.
Columns and labels:
[1] = qHTS assay for small molecule activators of the nuclear factor-kappa B (NF-kB) signaling pathway (AID 651749; active = well fitted activation curve with a large enough effect in the signal ratio; inconclusive = small, poorly fitted or top-dose-only effect, or a change in a side signal; the % refers to the signal ratio; also: potency is read from the fitted curve at half-maximal effect; as to activation: % of control where 0% means no effect); conditions: NF-kB-bla ME-180 cells, beta-lactamase FRET ratio, 16 h; activation: active compounds read high
Outline: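 In this qHTS format, compounds acting as activators increase NF-kB-driven beta-lactamase in ME-180 cells, measured as disrupted FRET after 16 hr exposure at 37C and 5% CO2.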

[2] = Cell Viability - Mesenchymal (AID 546); conditions: mesenchymal cells viability, qHTS; activity change, negative = cytotoxicity: at 91.7 µM (top of the series);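 also: cells exposed to compound for 40 hours before reading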; also: potency is read from the fitted curve at half-maximal effect
Outline: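 Human renal mesenchymal cells (glomerulus-derived), 1000 cells/well, 5 hr 37 °C pre-incubation; compound 40 hr, 37 °C; CellTiter-Glo, 20 min RT; luminescence; AC50 via Hill equation.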

[3] = Cellular Toxicity (caspase-3) Hek293 (AID 664); conditions: HEK293 caspase-3 activation, DMSO = 0%, 100 µM tamoxifen = 100%; at 92.2 µM (top of the series);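 also: cells exposed to compound for 16 h at 37 °C before readout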
Outline: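 qHTS, HEK293 (human embryonic kidney), 16 h cpd exposure in complete medium. Caspase-3/7 activation = luminescence increase; normalized to DMSO/100 uM tamoxifen; Hill-fit AC50.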

[4] = target: Cytochrome P450 3A4 (Homo sapiens) (UniProt P08684); assay: qHTS Assay for Inhibitors and Substrates of Cytochrome P450 3A4 (AID 884); also: % is scaled to controls: 0 for no effect and ±100 for the full control effect; nearly all actives have a fitted effect of over 50% in size
Outline: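 Luminescent readout of luciferin produced by CYP3A4 (20 nM) dealkylation of Luciferin-PPXE, 25 uM (its KM). NADPH-driven reaction ran 60 min at RT after 10 min compound preincubation; data scaled to 57 uM ketoconazole as 100% inhibition.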

[5] = qHTS assay for small molecule agonists of the antioxidant response element (ARE) signaling pathway measured by Nrf2-dependant transcriptional activity - cell viability counter screen (AID 720653; active = well fitted curve in the direction sought with a large enough effect in the repeat runs; inconclusive = weak or mixed curves; inactive = no such curve, though single readings can be large; an effect the other way counts as inactive or inconclusive; also: potency is read from the fitted curve at half-maximal effect; as to max response: % is scaled to controls: 0 for no effect and ±100 for the full control effect); conditions: ARE-bla HepG2 viability, CellTiter-Glo ATP luminescence, 16 h; max response: active compounds read low
Outline: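 ARE-bla HepG2 cells treated with compounds for 16 h at 37C; this counter screen measures viability as intracellular ATP by CellTiter-Glo luminescence after 30 min at room temperature.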

[6] = Cell Viability - MRC5 (AID 434; calls by dose curve;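 also: potency is read from the fitted curve at half-maximal effect; cells exposed to compound for 40 hours at 37 °C; potency reflects cytotoxicity seen as loss of intracellular ATP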); conditions: MRC5 lung fibroblast viability, qHTS
Outline: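 ATP luminescence read-out (CellTiter-Glo, 20 min RT) after 40 hr, 37 °C compound exposure of 1500 MRC5 cells/well. Data normalized to DMSO (basal) and 100 uM tamoxifen (100% inhibition); AC50 from standard Hill equation.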

[7] = Cell Viability - LYMP2-019 (AID 973); also: potency is read from the fitted curve at half-maximal effect; nearly all actives have a fitted effect of over 55% in size
Outline: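 Cytotoxicity is scored as a concentration-dependent drop in cellular ATP after cells (2500/well) receive compound for 24 hr at 37 C. Tetraoctylammonium bromide serves as positive control.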

[8] = Cell Viability - LYMP2-023 (AID 975); also: nearly all actives have a fitted effect of over 55% in size; also: potency is read from the fitted curve at half-maximal effect;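 as to activity change, negative = cytotoxicity: cellular ATP measured by luciferase luminescence as viability proxy; plate controls were DMSO only for no effect and 92 µM tetraoctylammonium bromide control for full effect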
Outline: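 Steps: seed 2500 human lymphoblastoid cells per well, incubate 5 hr at 37 C, add compound for 24 hr at 37 C, add CellTiter-Glo, hold 30 min at room temperature, read luminescence. AC50 derived by Hill modelling.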

[9] = Cell Viability - LYMP2-008 (AID 980); also: potency is read from the fitted curve at half-maximal effect; nearly all actives have a fitted effect of over 60% in size
Outline: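 Cells seeded at 2500/well and rested 5 hr at 37 C; compounds added over a concentration range and incubated 24 hr at 37 C; CellTiter-Glo added, 30 min at room temperature; luminescence read and AC50 fitted with Hill model.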

[10] = qHTS assay for small molecule disruptors of the mitochondrial membrane potential - 5 hr assay (AID 651755; calls by dose curve; also: nearly all actives have a fitted effect of over 40% in size; also: potency is read from the fitted curve at half-maximal effect; as to ratio change, negative = disruption: % is scaled to controls: 0 for no effect and ±100 for the full control effect); conditions: JC-1-type ratio dye; ratio change, negative = disruption: at 92.2 µM (top of the series)
Outline: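 Read-out: ratiometric Mito-MPS fluorescence, green monomer (ex 490/em 535) vs red mitochondrial aggregate (ex 540/em 590). HepG2 cells treated 5 hr at 37C before 30 min dye loading.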

[11] = Cell Viability - LYMP2-025 (AID 976); conditions: LYMP2-025 lymphoblastoid cell viability; activity change, negative = cytotoxicity: at 92.2 µM (top of the series); also: potency is read from the fitted curve at half-maximal effect;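 as to activity change, negative = cytotoxicity: plate controls were DMSO only for no effect and tetraoctylammonium bromide control for full effect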
Outline: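 Acute cytotoxicity is scored as a concentration-dependent fall in intracellular ATP, measured by luciferase luminescence, in human lymphoblastoid LYMP2-025 cells exposed to compound for 24 hours at 37 C. AC50 values come from standard Hill fits.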

[12] = qHTS assay for cell viability of the p53RE-bla HCT-116 cell line (AID 743292); also: nearly all actives have a fitted effect of over 55% in size; also: potency is read from the fitted curve at half-maximal effect; as to activity change, negative = cytotoxicity: % is scaled to controls: 0 for no effect and ±100 for the full control effect
Outline: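 Compound-exposed HCT-116 (p53RE-bla) cells, 4,000 per well, were kept 16 h at 37 C following a 5 h preincubation. Cell number was estimated from total ATP by CellTiter-Glo luminescence read after 30 min at room temperature.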

[13] = Cell Viability - LYMP1-002 - Assay at 40 hr (AID 994); also: potency is read from the fitted curve at half-maximal effect; nearly all actives have a fitted effect of over 60% in size
Outline: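 Cells are plated at 2500 per well and rested 5 hr at 37 C. Compounds are added and incubated 40 hr at 37 C. CellTiter-Glo reagent is added for 30 min at room temperature before luminescence is read.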

[14] = Cell Viability - LYMP1-002 - Assay at 16 hr (AID 948); conditions: LYMP1-002 lymphoblastoid cell viability; also: potency is read from the fitted curve at half-maximal effect
Outline: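 LYMP1-002 human lymphoblastoid cells, 2500/well, were treated with compounds for 16 hr at 37 C in complete medium. Viability was read as intracellular ATP by CellTiter-Glo luminescence, and AC50 was derived from a Hill fit to concentration-response data.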

[15] = Cell Viability - LYMP1-002 - Assay at 24 hr (AID 993); also: potency is read from the fitted curve at half-maximal effect
Outline: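 Acute toxicity is measured as concentration-dependent loss of cellular ATP in a human lymphoblastoid line (Coriell LYMP1-002) after 24 h treatment in complete medium. ATP is quantified by luciferase luminescence and AC50 derived by Hill modelling.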

[16] = MultiTox-Fluor Cytotoxicity Assay - LYMP1-003 - Dead Cells (AID 961); also: potency is read from the fitted curve at half-maximal effect; nearly all actives have a fitted effect of over 70% in size
Outline: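 Dead-cell protease release, detected as bis-AAF-R110 fluorescence at 485/520 nm, was measured in LYMP1-003 cells after 16 h compound treatment at 37 C. AC50 values came from Hill-modeled qHTS curves normalized to DMSO (0%) and 15 uM tetraoctylammonium bromide (100%).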
Tags tell the direction and shape of the fitted curve.

Chain of UniProt P08684 (P08684 whole entry, looked up): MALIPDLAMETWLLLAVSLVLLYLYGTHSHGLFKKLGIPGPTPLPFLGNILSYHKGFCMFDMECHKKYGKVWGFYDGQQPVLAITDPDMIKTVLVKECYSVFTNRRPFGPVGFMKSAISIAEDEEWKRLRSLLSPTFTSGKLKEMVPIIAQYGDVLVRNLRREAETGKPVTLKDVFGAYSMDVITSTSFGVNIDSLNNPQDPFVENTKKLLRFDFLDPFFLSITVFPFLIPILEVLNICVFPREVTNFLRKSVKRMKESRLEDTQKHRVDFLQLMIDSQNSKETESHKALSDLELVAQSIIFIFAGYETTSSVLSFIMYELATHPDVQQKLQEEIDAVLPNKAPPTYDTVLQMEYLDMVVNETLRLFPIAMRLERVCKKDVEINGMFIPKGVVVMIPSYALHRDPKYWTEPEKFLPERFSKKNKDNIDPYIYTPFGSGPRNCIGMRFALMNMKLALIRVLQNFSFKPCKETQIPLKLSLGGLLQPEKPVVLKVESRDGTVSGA

Compound: CCCCCc1cc(O)cc(O)c1
- activation [1]: inconclusive: 7.44%

Compound: Oc1c(Br)c(Br)c(Br)c(Br)c1Br
- Potency [2]: inactive
- caspase-3 activation [3]: inconclusive: 36.9%

Compound: CCN(CC)c1ccccc1
- Potency [4]: inactive

Compound: C/C=C/CC#N
- max response [5]: inactive: -11.2%

Compound: CN(C)c1ccc(N=O)cc1
- Potency [6]: active: 42.1 µM
- Potency [7]: active: 1 µM
- Potency [8]: active: 1.26 µM
- Potency [9]: active: 1.26 µM
- Potency [1]: inconclusive: 35.5 µM [side channel, falling, partial curve, poor fit]
- ratio change, negative = disruption [10]: inconclusive: -22.8%
- Potency [5]: inconclusive: 50.1 µM [cytotoxic, partial curve, poor fit]

Compound: CCCCCCCCn1sccc1=O
- Potency [11]: active: 6.31 µM
- Potency [5]: active: 50.1 µM
- Potency [12]: inconclusive: 70.8 µM [cytotoxic, single point]

Compound: OCC(Cl)CCl (configuration not stated)
- Potency [4]: inactive

Compound: COC1=CC(=O)OC(CCc2ccc3c(c2)OCO3)C1 (configuration not stated)
- Potency [6]: inactive: > 92 µM
- Potency [11]: inactive
- Potency [13]: inconclusive: 50.1 µM [cytotoxic, partial curve]

Compound: Clc1ccc(C(c2ccccc2Cl)C(Cl)(Cl)Cl)cc1 (configuration not stated)
- caspase-3 activation [3]: inconclusive: 75.9%
- Potency [12]: inconclusive: 39.8 µM [cytotoxic, partial curve, poor fit]

Compound: Clc1ccccc1
- Potency [6]: inactive: > 92 µM
- Potency [4]: inactive

Compound: CCCCCC[N+](=O)[O-]
- Potency [8]: inactive

Compound: ClCC(Cl)Cl
- Potency [1]: inconclusive: 0.0891 µM [side channel, falling, full curve, poor fit]

Compound: O=C(O)C(Cl)(Cl)Br
- Potency [12]: inactive

Compound: Oc1c(Cl)c(Cl)cc(Cl)c1Cl
- Potency [10]: inconclusive: 42.2 µM [inhibitor, partial curve]

Compound: CN1CSC(=S)N(C)C1
- caspase-3 activation [3]: inconclusive: 45.2%
- Potency [14]: inconclusive: 50.1 µM [cytotoxic, single point]
- Potency [11]: inconclusive: 39.8 µM [cytotoxic, partial curve, poor fit]
- Potency [13]: inconclusive: 39.8 µM [cytotoxic, partial curve]

Compound: O=C(CCl)c1ccccc1
- Potency [6]: inconclusive: 62.1 µM [single point]
- activity change, negative = cytotoxicity [2]: active: -109%
- Potency [14]: active: 79.4 µM
- Potency [8]: active: 12.6 µM
- Potency [9]: active: 12.6 µM
- Potency [15]: inconclusive: 50.1 µM [cytotoxic, partial curve]
- activation [1]: inconclusive: -4.38%

Compound: CC12CC1(C)C(=O)N(c1cc(Cl)cc(Cl)c1)C2=O (configuration not stated)
- Potency [2]: inactive

Compound: c1ccc(N=NNc2ccccc2)cc1
- Potency [10]: inconclusive: 42.2 µM [inhibitor, partial curve, poor fit]

Compound: [CH3][Hg][Cl]
- Potency [2]: active: 6.31 µM
- Potency [16]: inconclusive: 12.6 µM [cytotoxic, single point]
- Potency [8]: active: 5.01 µM
- Potency [9]: active: 5.01 µM
- Potency [13]: inconclusive: 50.1 µM [cytotoxic, partial curve]
- Potency [1]: inconclusive: 39.8 µM [side channel, falling, partial curve]
- Potency [12]: inconclusive: 79.4 µM [cytotoxic, single point]
